Results as given in PubChem BioAssay AID488969 (Vanderbilt High Throughput Screening Facility, 2010).
Whole data set: some 110,000 compounds, median “z-score” near -0.1, cut for the highest 2% near 2. The list shows a part of the results. Active and inactive are the calls of the source.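 How the source made its calls: active means z-score in the third read window above 3 or below -3; inactive means the rest.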

Molecular target: Metabotropic glutamate receptor 8 (Rattus norvegicus) (UniProt P70579)
Experiment: mGluR8 Gi/Go-coupled signaling modulation – cell-based, rat, thallium flux, HTS, primary screen (AID 488969)
Conditions: HEK293 rat mGluR8, GIRK (G protein-gated inwardly rectifying potassium channel) thallium flux, FluoZin2; at 10 µM; stronger effect = higher value; submaximal glutamate (EC20) added with thallium

Sequence of UniProt P70579 (P70579 whole entry, looked up): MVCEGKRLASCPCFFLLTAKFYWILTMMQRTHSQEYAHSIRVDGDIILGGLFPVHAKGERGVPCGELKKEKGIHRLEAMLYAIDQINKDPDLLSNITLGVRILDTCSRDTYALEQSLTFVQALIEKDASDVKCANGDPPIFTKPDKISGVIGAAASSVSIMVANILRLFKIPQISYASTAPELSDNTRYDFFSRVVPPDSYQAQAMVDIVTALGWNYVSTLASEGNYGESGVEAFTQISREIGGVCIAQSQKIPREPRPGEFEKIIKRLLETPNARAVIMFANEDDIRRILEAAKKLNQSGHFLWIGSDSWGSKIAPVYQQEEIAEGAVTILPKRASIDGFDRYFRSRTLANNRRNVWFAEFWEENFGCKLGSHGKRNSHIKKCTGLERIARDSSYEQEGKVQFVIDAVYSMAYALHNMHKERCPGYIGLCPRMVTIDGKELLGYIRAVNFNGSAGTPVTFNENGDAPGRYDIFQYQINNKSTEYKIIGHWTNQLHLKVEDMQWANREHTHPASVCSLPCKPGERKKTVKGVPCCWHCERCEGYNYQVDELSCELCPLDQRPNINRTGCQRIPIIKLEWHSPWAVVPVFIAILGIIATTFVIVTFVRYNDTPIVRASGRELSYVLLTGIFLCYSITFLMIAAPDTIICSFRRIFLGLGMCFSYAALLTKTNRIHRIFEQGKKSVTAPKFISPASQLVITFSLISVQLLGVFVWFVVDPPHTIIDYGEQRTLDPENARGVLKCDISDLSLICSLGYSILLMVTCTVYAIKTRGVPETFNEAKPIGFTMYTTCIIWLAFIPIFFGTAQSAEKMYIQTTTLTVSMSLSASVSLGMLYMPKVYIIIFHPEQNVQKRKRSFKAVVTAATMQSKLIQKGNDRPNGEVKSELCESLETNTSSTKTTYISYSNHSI

First: O=C(CCc1ccccc1)NCCCN1CCOCC1
Second: N#Cc1nc(-c2ccc(F)cc2)oc1NCCN1CCOCC1
The z-score of the first is higher: 0.801 for the first, 0.242 for the second.

First: Cc1ccc(C(=O)NC(=S)Nc2ccc(-c3cc4ccccc4oc3=O)cc2)c(C)c1
Second: Cc1ccc(NC(=O)C(=O)NCc2ccc(/C=N/NC(=O)c3c(C)nc4ccccn34)o2)cc1
The z-score of the first is higher: -0.115 for the first, -1.21 for the second.

Compared with Cc1ccc(C)c2sc(NC(=O)c3ccc(N4CCCCC4)c([N+](=O)[O-])c3)nc12, CC1CCCN(c2ccc(C(=O)NCc3ccco3)cc2[N+](=O)[O-])C1 (stereo not given) is lower in z-score: 0.179 for the first, -0.478 for the second.

Going from Cc1c(C(=O)NC2CCCCC2)oc2c1C(=O)CC(C)(C)C2 to COc1ccc(CN(Cc2nc3ccccc3c(=O)[nH]2)C(=O)NC2CCCCC2)cc1, the z-score falls from 1.33 to -0.301.

Compared with CN(C)c1nc2ccc(OCCN3CCCCC3)cc2s1, CCN1CCN(CC(=O)Nc2nc3ccc(OC)cc3s2)CC1 is lower in z-score: 0.169 for the first, -0.0184 for the second.

First: CC(=O)NS(=O)(=O)c1ccc(NC(=S)NC(=O)COc2ccccc2C)cc1
Second: COc1ccccc1OCC(=O)NNC(=O)c1cccs1
The z-score of the first is higher: 0.496 for the first, -0.194 for the second.

Going from O=S(=O)(Cc1ccc(Cl)cc1)CC(O)COCc1ccccc1 (stereo not given) to Clc1ccc(Cn2nnc(-c3ccccc3)n2)cc1, the z-score falls from 0.0839 to -0.139.

Compared with COc1ccc(S(=O)(=O)N(CC(=O)NCC2CCCO2)c2ccc(F)cc2)cc1OC (stereo not given), COc1ccc(N(CC(=O)N2CCc3ccccc3C2)S(=O)(=O)c2c(C)nn(C)c2C)cc1 is lower in z-score: 0.22 for the first, -0.173 for the second.

First: CC(NC(=O)c1ccco1)c1ccc2c(c1)OCCO2 (stereo not given)
Second: CCC(=O)Nc1ccc2c(c1)OCCO2
The z-score of the first is higher: 0.162 for the first, -0.164 for the second.

Going from Cc1cccc(C)c1N1CCN(C(=O)Nc2ccc3c(c2)OCCO3)CC1 to Cc1ccc(S(=O)(=O)N2CCN(CC(=O)N/N=C/c3ccco3)CC2)cc1, the z-score rises from -0.0911 to -0.0503.

First: Cc1nnc(NC(=O)CSc2nnc(Cc3ccccc3)n2Cc2ccccc2)s1
Second: Cn1c(-c2cccc(OCc3ccccc3)c2)nc2c1c(=O)[nH]c(=O)n2Cc1ccccc1
The z-score of the first is higher: -0.0888 for the first, -0.175 for the second.

Compared with O=C(CSc1ccccc1)N1CCc2ccccc21, Cc1nn(-c2ccccc2)c(N2CCCC2)c1/C=N/NC(=O)c1ccccc1O is lower in z-score: -0.138 for the first, -0.454 for the second.

Compared with Cn1cccc1C(=O)NC(=O)COC(=O)c1ccccc1O, COc1ccc(CNC(=O)COC(=O)c2cc(-c3ccco3)nc3ccccc23)cc1 is lower in z-score: 0.606 for the first, -0.777 for the second.

First: COc1cc(NC(=O)CSc2nccc(C)n2)c(C(=O)O)cc1OC
Second: COc1cccc(OC)c1C(=O)Nc1cc(C)on1
The z-score of the first is lower: -0.26 for the first, 0.04 for the second.

Going from CCCOc1ccccc1N/C(=N\S(=O)(=O)c1ccc(C)cc1)Nc1nc(C)cc(C)n1 to CCOc1ccccc1NC(=O)CN(c1cc(C)cc(C)c1)S(=O)(=O)c1c(C)noc1C, the z-score rises from -0.0949 to -0.0813.

Going from COc1cc(C(=O)Nc2ccc3c(c2)Cc2cc(NC(=O)c4cc(OC)c(OC)c(OC)c4)ccc2-3)cc(OC)c1OC to COc1cc(C(=O)NCCOc2cccc(C)c2)c(Br)c(OC)c1OC, the z-score rises from -0.278 to -0.0571.

Compared with CCCCCCNCc1cccc(Br)c1, Brc1cccc(C2CC(c3ccccc3)n3nnnc3N2)c1 (stereo not given) is higher in z-score: -0.031 for the first, 0.673 for the second.

Going from COc1ccccc1NC(=O)CCC(=O)Nc1nnc(C(F)(F)F)s1 to COc1ccccc1NC(=O)CCC(=O)Nc1ccccc1OC, the z-score rises from -0.293 to -0.281.

Going from COc1cccc(/C=N/n2c(-c3ccco3)nc3ccccc3c2=O)c1OC to CNc1ccccc1-c1nc2ccccc2n(C)c1=O, the z-score rises from -0.408 to 0.24.

Going from COc1ccc(CN(C(=O)c2cccs2)c2nccs2)cc1OC to COc1ccc(-c2cc(C(F)(F)F)nc(SCC(=O)NCCN3CCOCC3)n2)cc1OC, the z-score rises from -0.311 to 0.846.

Going from CCC(C)NC(=O)CNS(=O)(=O)c1ccc(C)cc1 (stereo not given) to Cc1ccc(CS(=O)(=O)CCC(=O)NC2CC2)cc1, the z-score rises from -0.0996 to 0.149.

Compared with Cc1cc(C(=O)NN=C2CCCCC2)c2ccccc2n1, O=C(NN=C1CCC(c2ccccc2)CC1)c1cc2c(s1)CCCC2 (stereo not given) is higher in z-score: 0.0392 for the first, 1.6 for the second.

Compared with Cc1cnc(C(=O)OCC(=O)Nc2cccc(S(=O)(=O)N3CCCCC3)c2)cn1, COC(=O)c1ccc(S(=O)(=O)N2CCC(c3nc4ccccc4o3)CC2)cc1 is higher in z-score: -0.829 for the first, -0.225 for the second.

Compared with COc1ccc(N/N=C(/C(N)=O)C2=NC(C)(C)Cc3ccccc32)cc1, CCOC(=O)CSC1=N/C(=C\c2cccnc2)C(=O)N1c1ccc(OC)cc1 is higher in z-score: -0.381 for the first, -0.218 for the second.

First: C=CC[n+]1c(-c2ccc(C)cc2)csc1NNC(=O)Nc1ccccc1
Second: Cc1cccc(NC(=S)N(C)Cc2cn(C)c3ccccc23)c1
The z-score of the first is lower: -0.479 for the first, 0.0162 for the second.

Compared with CN1CCN(C2OC(=O)c3ccccc32)CC1 (stereo not given), O=C(CSc1nnc(Cc2ccccc2)o1)NC1CC2CCC1C2 (stereo not given) is higher in z-score: -0.841 for the first, 0.2 for the second.

Going from COc1cccc(/C=C/C(=O)OCC(=O)NCc2ccco2)c1OC to O=C(COc1cccc(NC(=O)c2ccco2)c1)c1ccc(F)cc1, the z-score falls from -0.235 to -0.699.

Going from S=C(Nc1ccc(Br)cc1)N1CCCC1 to Cc1ccc(NC2CCCCC2NS(=O)(=O)c2ccc(Cl)cc2)cc1 (stereo not given), the z-score rises from 0.0282 to 0.13.

Compared with Cc1c(C(=O)O)oc2ccc(S(=O)(=O)NCCC3=CCCCC3)cc12, CCN(CC)CCNC(=O)c1cn(C)c2ccc(S(=O)(=O)N(C)C3CCCCC3)cc2c1=O is higher in z-score: -0.196 for the first, -0.0651 for the second.

Compared with O=c1nc(N2CCCCCC2)nc(N2CCCCCC2)[nH]1, COc1cc2[nH]c(=O)n(CCC(=O)N3CCC(N4CCCCC4)CC3)c(=O)c2cc1OC is higher in z-score: -0.00468 for the first, 0.8 for the second.

First: O=C(COC(=O)c1cc(Cl)ccc1[N+](=O)[O-])NCc1ccc(Cl)cc1Cl
Second: Cc1c(Br)c([N+](=O)[O-])nn1CC(=O)Nc1sc2c(c1C(=O)OC(C)C)CCC(C)C2 (stereo not given)
The z-score of the first is lower: -0.154 for the first, 0.163 for the second.

Compared with CC(C)(C)Cc1nc(-c2ccccn2)no1, Cc1ccc(NC(=O)CSc2nnc(Cc3cccn3C)n2-c2ccc(F)cc2)c(C)c1 is lower in z-score: -0.365 for the first, -0.525 for the second.

Compared with Cc1c(C(=O)N2CCCCC2)sc(NC(=O)C23CC4CC(CC(C4)C2)C3)c1C#N, O=C(NNC(=O)C12CC3CC(CC(C3)C1)C2)c1cnccn1 is lower in z-score: 0.323 for the first, 0.248 for the second.

Going from COc1ccc(Nc2cc(=O)n(C3CCCCC3)c(=O)[nH]2)c(OC)c1 to O=C(c1cccs1)c1coc2ccc(O)c(CN(CCO)CCO)c12, the z-score falls from -0.305 to -0.481.

Molecule CC1(C(=O)NC23CC4CC(CC(C4)C2)C3)CC1(Cl)Cl (stereo not given) has a z-score of -0.368.

CCn1c(NC(=O)Nc2cccc(C)c2C)cc2sccc21 was tested, and the z-score was active: 3.12.
